The supplement of paper PMC7826260
Some of the results follow. Cleavage of a single-stranded DNA pool by Rep nickase domains was read by sequencing (1 h at 37 °C, 3 µM enzyme); the outer parts of the 90-letter strands are left off. Values are log2 of uncut reads against the no-enzyme pool; strong cutting gives strongly negative numbers. There is no active / inactive call. Counts are relative to all reads; where an enzyme cuts many sequences, the uncut ones exceed 0.

What was measured:
Assay in all cases: uncleaved DNA left, log2 of reads against the no-enzyme library (log2 ratio); higher = less cleavage (more negative = more Rep cleavage of the k-mer); sequences stand for … in CTCGTCCG…ACCGGAGA
[1] = test system: T1, Rep nickase domain of Muscovy duck circovirus
T1 sequence (Rep 1-111, printed without the tag): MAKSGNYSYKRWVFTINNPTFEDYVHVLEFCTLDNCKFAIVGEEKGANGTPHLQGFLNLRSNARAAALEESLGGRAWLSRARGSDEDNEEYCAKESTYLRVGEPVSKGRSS
Experimental: (§1)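 A pool of 90-nt single-stranded DNAs with seven random bases just before the constant AC of the nick site (name = the seven bases) was cut by 3 µM recombinant His6-SUMO-tagged Rep nickase domain (300 nM DNA, 50 mM HEPES pH 8.0, 50 mM NaCl, 1 mM MnCl2, 1 h, 37 °C, three replicates). Uncut DNA was amplified and sequenced.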

[2] = test system: T2, Rep nickase domain of banana bunchy top virus
T2 sequence (Rep 1-94, printed without the tag): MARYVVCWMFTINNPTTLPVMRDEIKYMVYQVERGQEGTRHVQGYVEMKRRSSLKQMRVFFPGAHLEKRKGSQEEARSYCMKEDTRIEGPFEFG
Experimental: as §1

[3] = test system: T3, Rep nickase domain of cabbage leaf curl virus
T3 sequence (Rep 1-116, printed without the tag): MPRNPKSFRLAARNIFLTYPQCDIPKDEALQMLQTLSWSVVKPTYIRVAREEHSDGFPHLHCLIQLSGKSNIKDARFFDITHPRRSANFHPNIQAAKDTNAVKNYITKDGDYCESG
Experimental: as §1

[4] = test system: T4, Rep nickase domain of chickpea chlorotic dwarf virus
T4 sequence (Rep 1-124, printed without the tag): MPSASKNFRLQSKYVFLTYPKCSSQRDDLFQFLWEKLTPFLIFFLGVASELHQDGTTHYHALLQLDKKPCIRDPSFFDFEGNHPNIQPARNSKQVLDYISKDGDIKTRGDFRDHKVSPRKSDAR
Experimental: as §1

[5] = test system: T5, Rep nickase domain of faba bean necrotic yellows virus
T5 sequence (Rep 1-98, printed without the tag): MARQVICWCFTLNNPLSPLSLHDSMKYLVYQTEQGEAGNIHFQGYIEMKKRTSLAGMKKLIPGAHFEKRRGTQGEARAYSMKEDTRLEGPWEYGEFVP
Experimental: as §1

[6] = test system: T6, Rep nickase domain of maize striate mosaic virus
T6 sequence (Rep 1-117, printed without the tag): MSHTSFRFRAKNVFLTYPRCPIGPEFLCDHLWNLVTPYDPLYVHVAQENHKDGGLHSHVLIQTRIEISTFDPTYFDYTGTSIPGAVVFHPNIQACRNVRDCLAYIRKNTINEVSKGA
Experimental: as §1

[7] = test system: T7, Rep nickase domain of porcine circovirus 2
T7 sequence (Rep 2-116, printed without the tag): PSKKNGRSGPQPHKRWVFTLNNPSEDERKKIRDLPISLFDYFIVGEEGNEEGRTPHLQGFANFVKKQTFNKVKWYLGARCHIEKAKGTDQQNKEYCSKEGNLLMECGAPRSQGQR
Experimental: as §1

[8] = test system: T8, Rep nickase domain of tomato golden mosaic virus
T8 sequence (Rep 1-124, printed without the tag): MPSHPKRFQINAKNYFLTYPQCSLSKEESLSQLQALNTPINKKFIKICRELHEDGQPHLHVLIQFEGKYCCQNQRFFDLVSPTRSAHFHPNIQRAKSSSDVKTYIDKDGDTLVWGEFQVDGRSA
Experimental: as §1

[9] = test system: T9, Rep nickase domain of tomato yellow leaf curl virus
T9 sequence (Rep 1-136, printed without the tag): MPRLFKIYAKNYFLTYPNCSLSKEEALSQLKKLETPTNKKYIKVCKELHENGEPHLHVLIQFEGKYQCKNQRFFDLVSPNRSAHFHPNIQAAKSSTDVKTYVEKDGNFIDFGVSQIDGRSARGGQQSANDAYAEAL
Experimental: as §1

[10] = test system: T10, Rep nickase domain of wheat dwarf virus
T10 sequence (Rep 1-137, printed without the tag): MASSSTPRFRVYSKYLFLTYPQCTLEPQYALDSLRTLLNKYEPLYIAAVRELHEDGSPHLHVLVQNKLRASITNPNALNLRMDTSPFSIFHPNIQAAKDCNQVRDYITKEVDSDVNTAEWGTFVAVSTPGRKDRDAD
Experimental: as §1

Row | Sequence | uncleaved DNA left (log2) [1] | uncleaved DNA left (log2) [2] | uncleaved DNA left (log2) [3] | uncleaved DNA left (log2) [4] | uncleaved DNA left (log2) [5] | uncleaved DNA left (log2) [6] | uncleaved DNA left (log2) [7] | uncleaved DNA left (log2) [8] | uncleaved DNA left (log2) [9] | uncleaved DNA left (log2) [10]
1 | TTCCCCA | 0.0233 | -0.039 | 0.221 | -0.466 | 0.0392 | -0.00242 | -0.477 | -0.0141 | 0.113 | 0.125
2 | TTAATCA | 0.0679 | 0.197 | 0.501 | 0.179 | 0.0795 | 0.759 | 0.153 | 0.1 | 0.351 | 0.294
3 | CTGTGCG | -0.167 | -0.271 | -0.83 | 0.359 | -0.132 | -0.38 | -0.0433 | -0.268 | -0.376 | -0.303
4 | GAAGTAC | 0.0218 | -0.0271 | 0.115 | 0.362 | -0.06 | 0.37 | 0.0469 | 0.0372 | 0.0763 | 0.0562
5 | CATGCGC | 0.0344 | -0.0253 | -0.873 | 0.119 | -0.0755 | -0.712 | 0.0982 | -0.259 | -0.0821 | -0.128
6 | CCCCATA | -0.145 | 0.00724 | -0.201 | -1.24 | 0.0134 | -0.8 | -0.216 | 0.0109 | 0.0282 | 0.0541
7 | GGCGCAG | -0.0459 | 0.0588 | 0.371 | 1.06 | 0.00675 | 1.76 | 0.229 | 0.0829 | -0.0249 | 0.133
8 | TCGGATC | 0.107 | 0.0529 | 0.359 | 0.809 | 0.132 | 1.13 | 0.327 | 0.0184 | 0.151 | 0.0717
9 | GTGCAGT | 0.0815 | 0.00783 | 0.145 | 0.817 | -0.205 | 0.333 | 0.00969 | -0.0635 | 0.0903 | -0.0992
10 | GGGCTAA | -0.00298 | 0.102 | 0.756 | 1.83 | -0.0891 | 2.04 | 0.164 | -0.0339 | -0.0541 | 0.0561
11 | GGTCATC | -0.0882 | 0.114 | 0.736 | 1.72 | -0.00953 | 2.14 | 0.193 | -0.0443 | 0.0995 | 0.121
12 | CTAAGTG | 0.0391 | 0.0198 | -0.701 | -0.763 | 0.0127 | -1.07 | 0.14 | -0.0363 | -0.0102 | -0.00574
13 | CTATCGG | -0.000639 | -0.027 | 0.487 | 1.41 | -0.0548 | 1.57 | 0.065 | 0.0939 | -0.0293 | -0.00858
14 | CTCATTG | -0.0276 | 0.0872 | -0.612 | -0.455 | 0.24 | -1.09 | 0.128 | 0.141 | 0.146 | 0.101
15 | CGACCAT | -0.0083 | 0.0201 | 0.214 | 0.576 | 0.048 | 0.538 | -0.0249 | 0.067 | 0.0654 | 0.106
16 | CCAGCTG | -0.137 | -0.0258 | 0.228 | 1.28 | -0.0361 | 1.65 | 0.0693 | 0.00708 | -0.24 | -0.0815
17 | CCCTGCT | -0.502 | -0.068 | -0.677 | -1.32 | -0.0681 | -0.939 | -2.23 | 0.0125 | -0.0892 | -0.105
18 | TTCTTGC | -0.0896 | -0.169 | -0.863 | -0.407 | -0.0206 | -1.25 | 0.0492 | -0.189 | -0.0707 | -0.213
19 | CTGCGGA | 0.163 | 0.0824 | -0.407 | -0.612 | 0.0501 | -0.965 | 0.079 | 0.0631 | 0.00101 | -0.0145
20 | TTAAGGG | 0.15 | 0.0161 | 0.145 | 0.473 | 0.0494 | 0.176 | 0.144 | 0.169 | -0.0242 | 0.0902
21 | CCATGCA | -0.0642 | -0.0532 | -0.75 | -0.626 | 0.0626 | -1.26 | 0.0687 | -0.0856 | 0.0405 | -0.255
22 | GCGGGCT | 0.0757 | 0.125 | 0.744 | 1.5 | 0.0807 | 1.89 | 0.162 | 0.123 | -0.00665 | 0.0298
23 | CTCTTGC | -0.1 | -0.0367 | -0.896 | -0.696 | -0.081 | -1.34 | -0.0172 | -0.189 | -0.233 | -0.112
24 | TAGTCCG | 0.185 | 0.00516 | -0.756 | -0.285 | 0.0556 | -1.05 | -0.872 | -0.108 | -0.0217 | -0.0545
25 | CATGGAC | -0.0398 | -0.0376 | 0.313 | 1.12 | -0.00491 | 0.953 | 0.0894 | 0.0437 | -0.0353 | -0.0151
26 | GTCTGGG | 0.0435 | -0.00988 | 0.161 | 0.517 | -0.0953 | 0.559 | 0.0086 | 0.0567 | -0.02 | -0.108
27 | ACTCCTG | 0.00632 | -0.0803 | -0.278 | -0.217 | -0.0311 | -0.552 | 0.0649 | 0.0612 | 0.0251 | -0.0043
28 | GTACATT | 0.0743 | 0.00162 | 0.598 | 1.53 | 0.0534 | 2.04 | 0.0794 | -0.157 | 0.0607 | 0.202
29 | ATGCACT | -0.124 | -0.142 | -0.293 | -1.35 | -0.202 | -0.37 | -0.276 | -0.204 | -0.104 | -0.254
30 | GGCTATT | -2.27 | -0.102 | 0.421 | 0.719 | -0.0932 | 1.86 | -2.69 | -0.0587 | 0.0396 | -0.0174
